Whole data set: some 33,000 sequences, median “E-score (-0.5 to 0.5)” near -0.021, cut for the highest 2% near 0.32. The list shows a part of the results.
target: T1, Zap1 (UniProt P47043); test: PBM E-score (8-mer binding enrichment) (E-score (-0.5 to 0.5)); higher = stronger / more preferred TF binding; most listed sequences are background and not binding sites; settings: protein concentration: 200 nM; construct: GST-full length
T1 sequence: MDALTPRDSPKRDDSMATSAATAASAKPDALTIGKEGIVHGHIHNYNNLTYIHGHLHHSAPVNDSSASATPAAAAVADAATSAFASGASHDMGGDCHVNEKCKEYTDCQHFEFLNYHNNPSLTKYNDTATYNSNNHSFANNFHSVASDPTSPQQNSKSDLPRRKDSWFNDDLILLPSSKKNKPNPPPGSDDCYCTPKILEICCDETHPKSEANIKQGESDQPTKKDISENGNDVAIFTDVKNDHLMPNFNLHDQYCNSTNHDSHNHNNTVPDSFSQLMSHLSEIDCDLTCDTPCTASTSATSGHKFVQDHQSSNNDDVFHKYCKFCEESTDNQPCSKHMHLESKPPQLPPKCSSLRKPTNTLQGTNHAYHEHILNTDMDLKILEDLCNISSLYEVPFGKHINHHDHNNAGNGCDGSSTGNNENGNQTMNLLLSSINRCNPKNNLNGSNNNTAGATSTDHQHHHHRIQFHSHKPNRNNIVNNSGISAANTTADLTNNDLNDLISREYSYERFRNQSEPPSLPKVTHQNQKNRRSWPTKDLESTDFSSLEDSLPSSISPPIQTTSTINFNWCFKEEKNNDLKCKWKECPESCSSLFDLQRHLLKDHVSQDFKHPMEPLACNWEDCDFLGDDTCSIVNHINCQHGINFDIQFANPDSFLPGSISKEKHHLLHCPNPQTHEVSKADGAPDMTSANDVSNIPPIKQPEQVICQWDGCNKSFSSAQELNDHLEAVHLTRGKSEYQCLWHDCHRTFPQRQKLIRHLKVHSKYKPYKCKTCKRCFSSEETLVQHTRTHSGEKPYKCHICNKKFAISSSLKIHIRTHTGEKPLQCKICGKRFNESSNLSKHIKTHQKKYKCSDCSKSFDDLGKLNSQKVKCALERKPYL
Procedure: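 Universal 'all 10-mer' protein binding microarrays (Agilent AMADID 015681) probed with GST-tagged S. cerevisiae TFs (full-length or DBD) made by in vitro transcription/translation (PURExpress), about 100-200 nM. Bound TF was detected with fluorescent anti-GST. Each ungapped 8-mer (which stands for itself and its reverse complement) is scored by the PBM enrichment score (E-score), a modified Wilcoxon-Mann-Whitney statistic from -0.5 to +0.5, computed with the Universal PBM Analysis Suite. Scale: above 0.35 generally sequence-specific binding.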

| Sequence | PBM E-score |
| --- | --- |
| AACTAGGA | -0.00727 |
| GCTAGGCC | -0.192 |
| AACTATGG | 0.0897 |
| AGTATTAT | 0.124 |
| AGAACTTC | -0.175 |
| ACCAGAGA | 0.0732 |
| GCACTAAA | 0.0634 |
| GGCGAATA | -0.193 |
| CAGCTGGA | -0.131 |
| ACTGGACG | -0.266 |
| GTTAACGA | 0.0943 |
| AGATTGTC | -0.198 |
| GGAGTCAA | -0.159 |
| CTCTGCGA | -0.0931 |
| AAATACGT | -0.131 |
| CTCGTTAC | -0.0784 |
| TATGTCGA | -0.115 |
| CCGACCCC | -0.105 |
| AAGGCTCC | -0.262 |
| AACGAACG | -0.0519 |
| CTTGTCTA | 0.0288 |
| CTATCACC | 0.121 |
| AGACGCTC | -0.261 |
| AGATCCCA | -0.222 |
| CTTTACAA | 0.115 |

| Sequence | PBM E-score |
| --- | --- |
| CTTCTTGA | 0.0838 |
| GGCACGCA | -0.139 |
| CCCCTAGC | -0.167 |
| ACAGTAAC | 0.156 |
| ACGCGGGG | 0.165 |
| CACTGCTA | -0.102 |
| AACTAGTG | -0.0702 |
| CGTCCGAG | -0.104 |
| CAATCCTA | -0.0343 |
| AGTCGGGG | -0.127 |
| AGACCTAG | -0.123 |
| ATAGGCGA | -0.11 |
| GGCTGACC | -0.0633 |
| CGGTCTAC | -0.149 |
| AACAATCG | -0.073 |
| GATAACCA | 0.426 |
| CGTTAGTA | 0.0365 |
| CCTTAAGC | 0.0365 |
| CGACGAGC | -0.229 |
| ACTGGGGC | -0.176 |
| TCGGAGAA | -0.0145 |
| AGGACATG | -0.0235 |
| TCGAGCAA | 0.0473 |
| CGGACTTA | -0.0546 |
| GACAGGTC | -0.207 |

| Sequence | PBM E-score |
| --- | --- |
| GCAGGCGA | -0.224 |
| CAGCGTTA | 0.0255 |
| TAAATAAA | 0.13 |
| ACTAAGTA | -0.0162 |
| CCGGCCAC | 0.185 |
| AAGGGCGC | 0.0237 |
| AGGTATGC | 0.116 |
| CATCTACC | 0.021 |
| AACACGGA | -0.028 |
| ATAGTGCG | -0.0953 |
| CCCTCTGC | -0.33 |
| CCGATACA | -0.00212 |
| CTCAAACC | 0.0963 |
| AATGGCGG | -0.0885 |
| ATGCTGCG | -0.311 |
| ACTAGTTG | -0.226 |
| GTACAGAC | -0.0812 |
| CCATCTTA | -0.129 |
| CACAGTAG | 0.0475 |
| CGAGGGAG | -0.197 |
| AATCGGTC | -0.0793 |
| CAGCAGCA | -0.198 |
| AAGTCTGG | -0.00476 |
| ATCATATG | 0.12 |
| AGTCTGCA | -0.297 |

| Sequence | PBM E-score |
| --- | --- |
| GACTCGCA | -0.0704 |
| GATAACGA | 0.00419 |
| ATCCATCG | -0.183 |
| ATGTAGAG | 0.041 |
| CCCTCTAG | 0.0878 |
| CAAAATTG | 0.141 |
| CACAATGA | 0.0991 |
| AACCCGGC | 0.254 |
| AGTCGGGA | -0.192 |
| GACTGCGC | -0.23 |
| TAGGGGCA | -0.0624 |
| CATACTCA | -0.0395 |
| CTTTAAAC | 0.0184 |
| CGGATGAA | 0.127 |
| GCTCTTCA | -0.279 |
| ACCTCGTA | 0.189 |
| CGCCACAC | -0.147 |
| ATAAAACA | 0.0976 |
| CCATAGCA | -0.14 |
| CTCAAGGA | -0.00489 |
| AAGCGCTG | -0.143 |
| ACCCATAG | 0.196 |
| TCAGCCGA | -0.172 |
| AAGACCTC | 0.00604 |
| GCAGGACA | 0.0628 |

| Sequence | PBM E-score |
| --- | --- |
| CCTCGCTA | -0.162 |
| CTGTTACA | 0.0543 |
| ATATAAGA | 0.21 |
| AAATAAGA | 0.0511 |
| ACCCGTTA | 0.287 |
| CGTTTGCA | -0.0346 |
| CAATGCTA | -0.0663 |
| CCGCTCGC | -0.129 |
| AGGCCAAA | 0.0849 |
| CAAGGAAC | 0.141 |
| CTGTCGAA | -0.107 |
| AGTGATAA | 0.0174 |
| AAAGCAAG | -0.0115 |
| AAGATTCG | 0.0593 |
| GCTTAAGA | -0.157 |
| AGCTAACG | -0.102 |
| ATGCAGAC | 0.0215 |
| TCAGGCAA | -0.154 |
| CCCATGAA | 0.155 |
| CTTCCAAA | 0.0642 |
| CGGAGCTC | -0.223 |
| AACAAATG | 0.154 |
| CCTTTTAC | 0.2 |
| GGACATAC | 0.0076 |
| ACTTAGAT | 0.0667 |

| Sequence | PBM E-score |
| --- | --- |
| CCCGCGAA | 0.127 |
| ATCGTAAG | -0.0162 |
| CGTGCATC | -0.0375 |
| AGTAAAAC | -0.0747 |
| ACTGCCGC | 0.0637 |
| GAAGATCC | -0.36 |
| CAGCTAGA | -0.0537 |
| AACGTTTG | -0.0264 |
| CATAGAAC | -0.0409 |
| GTGCTCTA | -0.0713 |
| AGATAACA | 0.107 |
| CCTGAGCG | -0.0277 |
| TACGTCAA | -0.00419 |
| AACCCAGA | 0.236 |
| ATTCCTTA | 0.227 |
| ACCATTAA | 0.348 |
| AACTAATG | 0.218 |
| AACGGTGT | -0.107 |
| GCAGTGAA | -0.014 |
| CAGTACTC | -0.164 |
| CACACATA | -0.0854 |
| CCGTGACC | 0.376 |
| CTGTGCAA | -0.0488 |
| CCCTAGTC | -0.194 |
| AGGCTCTC | -0.349 |

| Sequence | PBM E-score |
| --- | --- |
| CCACCGTA | 0.0878 |
| CTGACGCA | -0.276 |
| GAAGGCTC | -0.376 |
| ATAAGAAC | 0.264 |
| CACATGAA | 0.0532 |
| CTAAGAAC | 0.118 |
| TCTTCGAA | 0.00843 |
| ATCAGCGG | -0.0232 |
| AACTTATA | 0.134 |
| ACGAGTAG | -0.0373 |
| CAGCACGG | -0.0301 |
| CTTCGACC | -0.00146 |
| AATTTGCC | -0.0429 |
| ATACCAAT | -0.0063 |
| CAATGCCG | -0.261 |
| GATTAGCC | -0.209 |
| TATTCTCA | -0.0303 |
| AAATACGG | 0.124 |
| AACTTCGA | 0.0778 |
| CTCAGATA | -0.0243 |
| AGAACGTG | -0.00445 |
| AATAACAT | 0.0801 |

— the supplement of paper PMC3334620
